# Data: paper PMC4336329 (PLoS ONE, 2015)
# Screen size: about 310,000 compounds; about 2,200 (0.71%) showed an effect of 50% or more. The effect is printed as a negative number. Some of the results follow.
# Molecular target: human ether-à-go-go-related gene (hERG) potassium channel (human, UniProt Q12809)
# Experiment: primary screen, population patch clamp on CHO cells stably expressing hERG
# human ether-à-go-go-related gene (hERG) potassium channel, sequence (Q12809 whole entry, looked up): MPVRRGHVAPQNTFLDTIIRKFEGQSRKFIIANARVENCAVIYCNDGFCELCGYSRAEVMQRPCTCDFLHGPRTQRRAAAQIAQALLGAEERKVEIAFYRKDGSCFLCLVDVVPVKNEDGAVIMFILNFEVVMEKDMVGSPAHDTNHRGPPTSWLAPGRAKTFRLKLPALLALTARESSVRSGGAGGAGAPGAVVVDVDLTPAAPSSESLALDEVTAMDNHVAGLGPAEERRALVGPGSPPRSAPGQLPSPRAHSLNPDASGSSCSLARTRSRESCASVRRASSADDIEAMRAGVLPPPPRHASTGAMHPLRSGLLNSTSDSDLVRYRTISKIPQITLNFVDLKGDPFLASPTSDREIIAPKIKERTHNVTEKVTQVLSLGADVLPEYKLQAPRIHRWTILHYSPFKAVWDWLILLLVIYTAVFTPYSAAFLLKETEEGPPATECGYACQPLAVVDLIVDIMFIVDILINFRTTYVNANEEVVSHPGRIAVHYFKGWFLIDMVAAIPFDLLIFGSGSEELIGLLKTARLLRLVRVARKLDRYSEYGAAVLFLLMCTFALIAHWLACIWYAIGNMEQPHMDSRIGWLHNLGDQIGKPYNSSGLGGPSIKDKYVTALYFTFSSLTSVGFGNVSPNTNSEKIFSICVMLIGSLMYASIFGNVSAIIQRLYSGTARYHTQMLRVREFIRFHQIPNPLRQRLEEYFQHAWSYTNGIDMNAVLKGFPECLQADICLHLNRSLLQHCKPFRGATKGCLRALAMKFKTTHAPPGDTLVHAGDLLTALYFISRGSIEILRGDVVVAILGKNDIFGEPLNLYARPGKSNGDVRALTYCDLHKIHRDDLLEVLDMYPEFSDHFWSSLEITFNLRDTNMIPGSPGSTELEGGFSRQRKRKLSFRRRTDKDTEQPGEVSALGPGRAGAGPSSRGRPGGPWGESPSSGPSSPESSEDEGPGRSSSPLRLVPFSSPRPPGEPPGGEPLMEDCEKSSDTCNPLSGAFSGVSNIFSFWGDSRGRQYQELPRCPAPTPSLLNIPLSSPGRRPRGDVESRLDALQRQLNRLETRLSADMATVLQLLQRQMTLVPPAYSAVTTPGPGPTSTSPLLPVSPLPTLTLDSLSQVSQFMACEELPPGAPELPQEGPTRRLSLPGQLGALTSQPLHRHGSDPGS
row,Compound,"hERG current change (%, negative = inhibition) at 1uM [%]"
1,Clc1ccc(OCCOCCNCc2ccccc2)cc1Cl.O=C(O)C(=O)O,14.9
2,CC(=O)c1ccc(S(=O)(=O)NCc2ccc(C(=O)N(C)CC(=O)Nc3cccc(F)c3)cc2)cc1,13.9
3,O=C(N/N=C\c1cccc(Cl)c1)c1n[nH]c2c1CCCC2,11
4,O=C(COC(=O)c1cccc(NC(=O)c2ccco2)c1)c1ccc(Br)cc1,2.74
5,O=C(C1CCC(CNS(=O)(=O)c2ccc(F)cc2)CC1)N1CCOCC1 (stereo not drawn),9.02
6,O=C(CCS(=O)(=O)Cc1ccccc1)N1CCN(c2ccc([N+](=O)[O-])cc2)CC1,-81
7,O=C(O)c1c2c(nc3ccc(S(=O)(=O)N4CCC(C(=O)NC5CCCC5)CC4)cc13)CCCCC2,7.31
8,O=C(COc1cccnc1[N+](=O)[O-])c1c[nH]c2ccccc12,11
9,CCc1ccc2[nH]cc(C(=O)N3CCCCCC3)c(=O)c2c1,10.1
10,Cc1ccc(-c2csc(N3CCC(C(N)=O)(N4CCCCC4)CC3)n2)cc1,6.23
11,COc1cccc(N2CCN(C(=O)c3ccc(=O)oc3)CC2C)c1 (stereo not drawn),-31
12,CC(C)(C)n1nnnc1C(c1cccnc1)N1CCN(C2CCCCC2)CC1 (stereo not drawn),3.91
13,COc1ccc(S(=O)(=O)NC(C)C(=O)NCCN2CCOCC2)cc1Cl (stereo not drawn),13
14,O=C(Nc1cccc(Cl)c1)c1cccnn1,20.6
15,Cc1cc(O)cc(O)c1C(=O)Cc1cscn1,6.33
16,COc1ccc(N(CC(=O)NC(C)(C)C)S(=O)(=O)c2ccccc2)cc1OC,9.89
17,O=C(Nc1nccs1)NC1CCCCC1,-16.2
18,Fc1ccccc1NC(=S)N1CCCCC1,9.42
19,COc1ccc(C(CNC(=O)c2cccc(S(=O)(=O)N3CCOCC3)c2)N2CCCC2)cc1 (stereo not drawn),-4.47
20,CCCn1nc(C(=O)Nc2ccc(S(=O)(=O)Nc3nccs3)cc2)c2ccccc2c1=O,12.6
21,CCN(CC)S(=O)(=O)c1cccc(C(=O)OC2CC(C)OC2=O)c1 (stereo not drawn),17.5
22,Cc1ccc(NC(=O)CN2CCc3ccccc3C2)cc1S(=O)(=O)N1CCOCC1,17.2

row,Compound,"hERG current change (%, negative = inhibition) at 1uM [%]"
1,COc1ccccc1/C=C(/C(=O)OCC(=O)Nc1cc(C)ccc1C)c1ccccc1,8.44
2,COc1ccc(-n2nc(C(=O)NCC(=O)NCCc3ccc(OC)c(OC)c3)c3ccccc3c2=O)cc1Cl,16.3
3,Cc1cc(C)nc(NC(=O)NS(=O)(=O)Nc2ccc(Br)cn2)n1,13.7
4,Cc1ccc2nc(N3CCN(C(=O)c4ccc(F)cc4)CC3)c(C#N)cc2c1,-56.8
5,COCCNC(=O)C(=O)NCC1OCCCN1S(=O)(=O)c1cccs1 (stereo not drawn),3.14
6,Cc1cccn2c(CN(C)C3CCOC3)c(C(=O)N3CCCCC3)nc12 (stereo not drawn),27.4
7,Cc1ccccc1CNC(=O)C(=O)NCCC1CCCCN1S(=O)(=O)c1cccs1 (stereo not drawn),9.93
8,COc1ccc(NC(=O)CCn2c(=O)c3cccn3c3ccccc32)cc1,9.21
9,Cn1c(=O)c2c(nc(N3CCNCC3)n2Cc2ccccc2Cl)n(C)c1=O,16.8
10,CCOC(=O)CSc1n[nH]c(-c2ccco2)n1,11.6
11,COc1cccc(C(=O)Nc2ccc(NC(C)=O)cn2)c1,10.4
12,CN=C(Nc1ccccc1OC)SC1CC(=O)N(c2ccc(C(=O)OC)cc2)C1=O (stereo not drawn),-5.59
13,Cc1nn(Cc2ccccc2)c(C)c1NC(=O)c1cc(-c2cccs2)on1,-2.3
14,C/C(=N\OCC(=O)Nn1c(C)nc2ccccc2c1=O)c1ccccc1,7.36
15,Cc1ccc(/C=N/N2CCN(Cc3ccccc3)CC2)s1,11.7
16,NNc1ccc(Cc2ccc(Cl)cc2Cl)nn1,7.64
17,CN1CCC(c2c[nH]c3ccccc23)C1 (stereo not drawn),12
18,COc1ccc(NC(=O)NCc2ccccc2F)cc1OC,10.2
19,O=C(N/N=C/C1CC=CCC1)c1cc(-c2cccnc2)nc2ccccc12 (stereo not drawn),-0.786
20,COC(=O)c1ccc(NC(=O)c2cc(-c3ccncc3)nc3ccccc23)cc1,17.6
21,CCN1C(=O)[C@H]2[C@@H](c3ccc(-c4cc(C(C)=O)cs4)cc3)N3CCCC[C@@]3(C(=O)OC)[C@H]2C1=O.O=C(O)C(F)(F)F,6.02
22,CCC[C@@H]1CCCO[C@@](C(=O)NCc2cc(C)n(C)n2)(C(F)(F)F)C1,10.1

row,Compound,"hERG current change (%, negative = inhibition) at 1uM [%]"
1,Cn1c(-c2ccsc2)c(-c2cccs2)c2cc(Br)ccc21,11.7
2,C=CCc1c(C)nc(SC(C)C)[nH]c1=O,3.21
3,Cc1c(C(=O)O)oc2c1ccc1ccccc12,22.3
4,C=CCn1c(=NC(=O)c2ccc(S(=O)(=O)N3CCc4ccccc4C3)cc2)sc2cc(S(N)(=O)=O)ccc21,-7.13
5,COc1cccc(NC(=O)c2ccccc2)c1,8.87
6,CCOC(=O)C(=CNc1cc(OC)ccc1-n1cccc1)C(=O)OCC,-6.49
7,COc1ccc(N2CCN(C(=O)c3cc(-c4cccs4)nc4ccccc34)CC2)cc1,14.1
8,CN(C)CCCN(C(=O)COc1ccc(Cl)cc1)c1nc2cc3c(cc2s1)OCO3.Cl,-0.552
9,Nn1cnnc1SCC(=O)Nc1ccc2c(c1)OCCO2,5.22
10,CC(=O)c1ccc(OCc2cc(C(=O)NCCN3CCCC(O)C3)no2)cc1 (stereo not drawn),7.33
11,O=C(NC(=S)N(Cc1ccccc1)c1ccccn1)C1CC1,8.54
12,Cc1ccc(S(=O)(=O)Nc2ccc(-c3csc(-c4ccccc4)n3)cc2)cc1,-0.991
13,O=C(CSCCc1ccccn1)Nc1cccnc1Cl,7.69
14,C[C@H](NC(=O)c1ncn(Cc2ccccc2)c1C(=O)N[C@@H](C)c1ccccc1)c1ccccc1,10.3
15,CCCCCCCC(=O)NC(Nc1ccccc1OC)C(Cl)(Cl)Cl (stereo not drawn),12.4
16,COc1ccc(C(=O)N(Cc2ccccc2)c2ccc(C)cc2)cc1S(=O)(=O)N1CCOCC1,-6.17
17,CN(C)S(=O)(=O)c1cccc(NC(=S)NCc2ccc3c(c2)OCO3)c1,10.6
18,Cc1ccccc1N1CCN(S(=O)(=O)c2nnc(NC(=O)c3ccc(F)cc3)s2)CC1,24.9
19,O=CNCCc1nc2ccccc2n1CCc1ccccc1,16.2
20,COc1ccc(-c2nc3nc(C)c(Cc4ccccc4)c(=O)n3[nH]2)cc1,3.12
21,COc1ccc(-c2nnc3n2CCCCC3)cc1,10.5
22,O=C1CC(Cc2ccccc2)C(=O)N1c1ccccn1 (stereo not drawn),14.9

row,Compound,"hERG current change (%, negative = inhibition) at 1uM [%]"
1,CSc1nsc(SCC(=O)Nc2ccc(NC(C)=O)cc2)n1,11.7
2,CCn1c(=N)c(S(=O)(=O)c2ccc(C)cc2)cc2c(=O)n3ccccc3nc21,-6.55
3,Cc1ccc(S(=O)(=O)N2CCCC2c2cccnc2)cc1 (stereo not drawn),0.107
4,Cc1ccccc1NS(=O)(=O)c1ccc(OCC(=O)NCc2cccnc2)cc1,4.02
5,COC(=O)c1cccc(C23CC4(C2)[C@H](CN(C)[C@@H]4c2ccccc2)C3c2ccc(C(F)(F)F)cc2)c1 (stereo partly drawn),14.4
6,CCCN1C2CCCC1CC(NC(=O)c1ccc(OC)cc1)C2 (stereo not drawn),1.04
7,CCOC(=O)c1c(C)[nH]c(C)c1S(=O)(=O)NCC1CCN(Cc2cccc(F)c2)CC1,14.2
8,COc1ccc(CNC(=O)C2CCC(CNc3c(N4CCOCC4)c(=O)c3=O)CC2)cc1 (stereo not drawn),8.97
9,Cc1nc2sc(C(c3ccccc3)N3CCN(C(=O)c4ccco4)CC3)c(O)n2n1 (stereo not drawn),13
10,NC(=O)CC(NC(=O)Cc1cccc2ccccc12)c1ccc(NCC2CC2)c([N+](=O)[O-])c1 (stereo not drawn),5.37
11,COc1ccccc1NC(=O)C1=C(C)Nc2ncnn2C1c1ccccc1C (stereo not drawn),5.96
12,O=C(CNC(=O)Cc1ccccc1)NCC(=O)OCC(=O)c1ccc(F)cc1,4.62
13,Cc1ccc(S(=O)(=O)NNC(=S)Nc2c(Cl)cccc2Cl)cc1,15.8
14,COc1ccc(C(=O)NC2CCCCC2)cc1S(=O)(=O)N1CCOCC1,6.58
15,COc1ccc(C(=O)NNC2=NCCCCC2)cc1,-2.19
16,Cc1sc2ncnc(OCc3nnc(-c4cccs4)o3)c2c1C,9.51
17,O=C(NCC(c1cccs1)N1CCOCC1)c1ccco1 (stereo not drawn),11.7
18,Cc1ccc(-n2nnnc2SCC(=O)Nc2sccc2C#N)cc1,15.5
19,Cc1ccccc1NC(=S)NC1(C)CCS(=O)(=O)C1 (stereo not drawn),11.9
20,Cc1ccc(C)c(S(=O)(=O)N2CCN(C(=O)CCC(=O)NCc3ccc(Cl)cc3)CC2)c1,1.26
21,C#CCOCCOCCOCCNc1nc(N2CCN(C(=O)[C@H](C(C)C)n3cc(CCO)nn3)CC2)nc(N2CCN(C(=O)[C@H]([C@@H](C)CC)n3cc(CCC[NH+]=C(N)N)nn3)CC2)n1.[Cl-],14.3
